The source holds more than one record for some entries. They are shown here; other results are not. An entry can have further records. The records of an entry repeat one measurement (runs, samples, wells, individuals or studies). Signs of the kind (2×) stand for listed records that agree.
System: IGROV1 complex spheroids (HUVEC, MSC), viability % test/control
Test: Anticancer human tumor IGROV1 cell line growth inhibition [GQUAD];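 further: spheroids exposed to compounds for 7 days before readout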;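 on viability, T/C: 100% = DMSO vehicle control viability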
Details: for viability, T/C: stronger effect = lower value
Description: DNA G-quadruplex Stabilizer Agents in Combinations in Complex Spheroids
A high-throughput screen of multi-cell type tumor spheroids was designed to identify active combinations of DNA G-quadruplex stabilizer agents and targeted small molecules. Complex spheroids include a stromal component modeled by human endothelial cells (HUVEC) and fibroblasts modeled by human mesenchymal stem cells (MSCs). The concentration ranges selected for each drug and investigational agent were based upon clinically achievable concentrations if the clinical Cmax of the agent was known.
Compounds. The drugs and investigational agents: pidnarulex (CX-5461; NSC782164), APTO-253 (NSC789042), BRACO-19 (NSC847499), peposertib (NSC802822), ceralasertib (NSC780249), elimusertib (NSC800525), camonsertib (NSC841442), AZD-1390 (NSC803789), olaparib (NSC753686), talazoparib (NSC767125), ART-558 (NSC835418), sotorasib (NSC818433), MRTX-1133 (NSC836407), SN-38 (NSC673596), topotecan (NSC609699), etoposide (NSC141540), doxorubicin (NSC123127), gemcitabine (NSC613327), 5-fluorouracil (NSC19893), paclitaxel (NSC125973), vemurafenib (NSC761431), panobinostat (NSC761190), R-306465 (JNJ-16241199; NSC773264), adavosertib (NSC754352), TP-3654 (NSC805149), carboplatin (NSC241240), KSQ-4279 (NSC840948), and staurosporine (NSC755774) were obtained from the National Cancer Institute (NCI) Developmental Therapeutics Program Chemical Repository (34). The FDA-approved anticancer drug set is available from the NCI Developmental Therapeutics Program. […] The stock solutions were prepared in dimethyl sulfoxide (DMSO, Sigma-Aldrich, St. Louis, MO, cat. D2650) at 800-fold the tested concentration and stored at -70 degrees C prior to their use. All drugs and investigational agents were tested over a range starting from a high concentration at or near the clinical Cmax and decreasing in half-log increments. If the clinical Cmax for an agent had not been determined, the highest concentration tested was 10 microM.
2.3 Cell Culture. All cells were maintained in an incubator at 37 degrees C and 5% CO2 with 95% humidity. […]

Row | Structure (SMILES) | IC50 (compound alone, run of 03/26/2024) | viability, T/C (compound alone 0.0316 µM) | viability, T/C (compound alone 0.316 µM)
1 | CN(C)c1ccc(Nc2c3ccc(NC(=O)CCN4CCCC4)cc3nc3cc(NC(=O)CCN4CCCC4)ccc23)cc1 | > 10 µM, 9.8 µM, 9.19 µM, 9.06 µM, 8.53 µM | – | –
2 | Cc1[nH]c2ccc(F)cc2c1-c1nc2c3cccnc3c3ncccc3c2[nH]1 | – | 87.6, 109, 86.7 (2×), 94.6, 94.5, 104 (2×), 102, 99.9, 105, 78.3% | 86.9, 97.3, 87.8, 92, 105, 96, 80.4, 93.5, 79.2, 87.6, 94.4, 76.3%

— PubChem BioAssay AID2060486 (Molecular Pharmacology Branch, DTP, NCI, 2025)
